According to PubChem BioAssay (NCATS):
This list was built around the results that the source calls inconclusive (neither active nor inactive); the mix of calls is not that of the screen. For some assays here: No potency is given beside an inconclusive call; the fits are too rough. Calls of active or inactive are those of the source. Unless noted, calls follow the shape of the dose curve; as a rule, active = well fitted curve in the direction sought with a large enough effect; inconclusive = small, poorly fitted or top-dose-only effect, or another doubt; inactive = no such curve, though single readings can be large; an effect the other way counts as inactive or inconclusive.

Assays:
[1] = molecular target: Cytochrome P450 2D6 (Homo sapiens) (UniProt P10635); assay: Cytochrome P450 family 2 subfamily D member 6 (CYP2D6) small molecule antagonists: luciferase biochemical (cell-free) qHTS assay (AID 1645840; active = well fitted curve in the direction sought with a large enough effect in the repeat runs; inconclusive = weak or mixed curves; inactive = no such curve, though single readings can be large; an effect the other way counts as inactive or inconclusive; also: nearly all actives have a fitted effect of over 55% in size; also: potency is read from the fitted curve at half-maximal effect; as to activity change, negative = inhibition: % is scaled to controls: 0 for no effect and ±100 for the full control effect)
Chain of UniProt P10635 (P10635 whole entry, looked up): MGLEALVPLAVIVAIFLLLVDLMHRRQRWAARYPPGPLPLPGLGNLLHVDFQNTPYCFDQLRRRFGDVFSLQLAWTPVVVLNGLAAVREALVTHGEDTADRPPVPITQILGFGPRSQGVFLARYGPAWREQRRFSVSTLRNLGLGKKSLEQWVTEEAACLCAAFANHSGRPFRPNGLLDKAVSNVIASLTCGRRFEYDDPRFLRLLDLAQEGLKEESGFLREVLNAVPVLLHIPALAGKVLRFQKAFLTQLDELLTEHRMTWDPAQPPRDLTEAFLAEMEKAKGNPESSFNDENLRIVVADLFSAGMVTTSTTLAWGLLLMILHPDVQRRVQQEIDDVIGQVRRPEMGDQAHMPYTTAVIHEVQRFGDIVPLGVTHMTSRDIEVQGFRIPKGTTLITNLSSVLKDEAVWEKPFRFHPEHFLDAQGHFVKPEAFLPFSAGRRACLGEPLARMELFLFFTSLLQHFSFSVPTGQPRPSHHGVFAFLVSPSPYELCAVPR
Method in brief: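 P450-Glo CYP2D6 system: proluciferin substrate converted by enzyme to luciferin, read by luminescence proportional to activity. Enzyme-substrate mix with compound 10 min at room temperature, then NADPH regeneration 1 h before detection reagent.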

[2] = Primary qHTS for inhibitors of nuclear receptor binding SET domain protein 2 (NSD2) in an isogenic RCH-ACV NSD2 p.E1099K mutant (9B) (AID 1645876); conditions: activity change, negative = viability loss: at 44.9 µM (top of the series) unless noted; also: nearly all actives have a fitted effect of over 70% in size; also: potency is read from the fitted curve at half-maximal effect; as to activity change, negative = viability loss: % is scaled to controls: 0 for no effect and ±100 for the full control effect
[3] = Primary qHTS for inhibitors of nuclear receptor binding SET domain protein 2 (NSD2) in an RCH-ACV wild type WT cells (2C) (AID 1645877); conditions: activity change, negative = cell killing: at 44.9 µM (top of the series) unless noted; also: potency is read from the fitted curve at half-maximal effect; nearly all actives have a fitted effect of over 70% in size
[4] = molecular target: Glutathione peroxidase 1 (Homo sapiens) (UniProt P07203); assay: Primary qHTS Assay for Inhibitors of Recombinant Selenoprotein Glutathione Peroxidase 1 (GPX1) (AID 1845191); also: potency is read from the fitted curve at half-maximal effect; nearly all actives have a fitted effect of over 65% in size
Chain of UniProt P07203 (P07203 whole entry, looked up): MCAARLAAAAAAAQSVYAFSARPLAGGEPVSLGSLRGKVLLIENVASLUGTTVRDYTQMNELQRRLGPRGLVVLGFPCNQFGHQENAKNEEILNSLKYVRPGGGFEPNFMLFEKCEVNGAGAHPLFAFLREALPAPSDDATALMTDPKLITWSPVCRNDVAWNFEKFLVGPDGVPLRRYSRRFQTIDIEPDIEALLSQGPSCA
Method in brief: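 GR-coupled readout: NADPH consumption tracked by fluorescence, ex 340/em 450 nm, at t=0 and after 15 min at RT. Final mix 10 nM GPX1, 1 mM GSH, 0.5 mM CHP, 0.5 mM NADPH, 100 nM GR, 0.01% BSA, following 30 min enzyme–compound preincubation.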

[5] = molecular target: Phospholipid hydroperoxide glutathione peroxidase GPX4 (Homo sapiens) (UniProt P36969); assay: Primary qHTS Assay for Inhibitors of Recombinant Selenoprotein Glutathione Peroxidase 4 (GPX4) (AID 1845192); conditions: activity change, negative = inhibition: at 50 µM (top of the series) unless noted; also: potency is read from the fitted curve at half-maximal effect; nearly all actives have a fitted effect of over 65% in size
Chain of UniProt P36969 (P36969 whole entry, looked up): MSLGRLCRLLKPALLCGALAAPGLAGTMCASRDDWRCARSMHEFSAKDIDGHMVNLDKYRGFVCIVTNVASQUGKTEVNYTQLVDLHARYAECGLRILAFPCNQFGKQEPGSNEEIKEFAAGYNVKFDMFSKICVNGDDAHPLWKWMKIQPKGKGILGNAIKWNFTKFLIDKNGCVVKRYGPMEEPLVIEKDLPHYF
Method in brief: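 Steps: GPX4 plus compound, 30 min RT; add GR/GSH/NADPH master mix; start with cumene hydroperoxide; read 340/450 nm fluorescence at 0 and 15 min. Finals were 200 nM GPX4, 1 mM GSH, 0.5 mM CHP, 0.5 mM NADPH, 100 nM GR.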

[6] = Primary fluorescence-based thiol-reactive (MSTI) qHTS assay for identification of artifact compounds. (AID 1845221);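 also: potency is read from the fitted curve at half-maximal effect; thiol-reactive compounds lower the probe fluorescence signal; nearly all actives have a fitted effect of over 65% in size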
Method in brief: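 MSTI probe at 4 uM final in 2% DMSO/PBS pH 7.4; compounds, 1 h at room temperature in dark. Fluorescence Ex/Em 525/598 nm, normalised to Acetyl-MSTI and MSTI, fitted to 4-parameter Hill.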

HaCat = assay: Cytotoxic Profiling of Annotated Libraries Using Quantitative High-Throughput Screening (AID 1296008); conditions: Five cell lines viability, CellTiter-Glo ATP luminescence, 48-72 h; max response: active compounds read low; also: nearly all actives have a fitted effect of over 60% in size; also: potency is read from the fitted curve at half-maximal effect; as to max response: % is scaled to controls: 0 for no effect and ±100 for the full control effect
Method in brief: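 Cells exposed to compounds for 48 or 72 hr at 37 degrees Celsius. Viability read as ATP-coupled luminescence with CellTiter-Glo after 10 min at room temperature.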

Tov-21-G = assay: Primary qHTS to identify gynecologic anti-cancer compounds using libraries of approved drugs and bioactive compounds (AID 1345084); conditions: Gynecologic cancer cell panel viability, ATPlite luminescence, 48 h; series mostly up to 57.5 µM; also: % is scaled to controls: 0 for no effect and ±100 for the full control effect; nearly all actives have a fitted effect of over 55% in size
Method in brief: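 Cells, 1,000 per well, plated 16 h, then exposed 48 h at 37 C to compounds. Viability by ATPlite luminescence after 15 min at room temperature.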

[7] = qHTS of pediatric cancer cell lines to identify multiple opportunities for drug repurposing: Primary screen for NB-EBc1 cells (AID 1347095);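 also: plate controls were DMSO neutral control for no effect and bortezomib for full effect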
Method in brief: (§1)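 Primary screen of approved and investigational compounds on cells in growth media at 37 degrees C, 5% CO2. MIPE set at 11-point and NPC set at 8-point dilutions; viability scored by ATP-based luminescence at 48 hours.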

[8] = qHTS of pediatric cancer cell lines to identify multiple opportunities for drug repurposing: Primary screen for NB1643 cells (AID 1347099); conditions: NB1643 neuroblastoma viability, CellTiter-Glo luminescence, 48 h; activity change, negative = cytotoxic: at 46 µM (top of the series);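 also: plate controls were DMSO neutral control for no effect and bortezomib positive control for full effect; nearly all actives have a fitted effect of over 50% in size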
Method in brief: as §1

[9] = qHTS of pediatric cancer cell lines to identify multiple opportunities for drug repurposing: Primary screen for BT-12 cells (AID 1347101);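 also: plate controls were DMSO for no effect and bortezomib positive control for full effect; nearly all actives have a fitted effect of over 25% in size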
Method in brief: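 Cells (500-1,000/well) rested 5 h, then received compounds for 48 h; metabolically active cells were measured by CellTiter-Glo luminescence. Final concentrations spanned up to 46 µM (MIPE, 11-point) or 0.59 nM-46 µM (NPC, 8-point) in primary screens, 11-point in follow-ups.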

[10] = Primary qHTS for small molecule stabilizers of the endoplasmic reticulum resident proteome: Secreted ER Calcium Modulated Protein (SERCaMP) assay (AID 1508630); conditions: SH-SY5Y GLuc-SERCaMP (Gaussia luciferase released on ER calcium loss) secretion, thapsigargin, luminescence; activity change, negative = inhibition: at 38.4 µM (top of the series) unless noted; also: potency is read from the fitted curve at half-maximal effect
Method in brief: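 The SH-SY5Y reporter protocol was run at 3 concentrations up to 38.3 uM (primary) or 11 concentrations (follow-up): 16 h compound, 100 nM thapsigargin for 4 h, then extracellular luciferase luminescence.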

[11] = qHTS of pediatric cancer cell lines to identify multiple opportunities for drug repurposing: Primary screen for MG 63 (6-TG R) cells (AID 1347105); conditions: MG 63 (6-TG R) viability, CellTiter-Glo, 48 h; activity change, negative = cytotoxic: at 46 µM (top of the series); also: % is scaled to controls: 0 for no effect and ±100 for the full control effect; nearly all actives have a fitted effect of over 50% in size
Method in brief: as §1

[12] = molecular target: Cytochrome P450 2C9 (Homo sapiens) (UniProt P11712); assay: Cytochrome P450 family 2 subfamily C member 9 (CYP2C9) small molecule antagonists: luciferase biochemical (cell-free) qHTS assay (AID 1645842; active = well fitted curve in the direction sought with a large enough effect in the repeat runs; inconclusive = weak or mixed curves; inactive = no such curve, though single readings can be large; an effect the other way counts as inactive or inconclusive; also: potency is read from the fitted curve at half-maximal effect; nearly all actives have a fitted effect of over 55% in size)
Chain of UniProt P11712 (P11712 whole entry, looked up): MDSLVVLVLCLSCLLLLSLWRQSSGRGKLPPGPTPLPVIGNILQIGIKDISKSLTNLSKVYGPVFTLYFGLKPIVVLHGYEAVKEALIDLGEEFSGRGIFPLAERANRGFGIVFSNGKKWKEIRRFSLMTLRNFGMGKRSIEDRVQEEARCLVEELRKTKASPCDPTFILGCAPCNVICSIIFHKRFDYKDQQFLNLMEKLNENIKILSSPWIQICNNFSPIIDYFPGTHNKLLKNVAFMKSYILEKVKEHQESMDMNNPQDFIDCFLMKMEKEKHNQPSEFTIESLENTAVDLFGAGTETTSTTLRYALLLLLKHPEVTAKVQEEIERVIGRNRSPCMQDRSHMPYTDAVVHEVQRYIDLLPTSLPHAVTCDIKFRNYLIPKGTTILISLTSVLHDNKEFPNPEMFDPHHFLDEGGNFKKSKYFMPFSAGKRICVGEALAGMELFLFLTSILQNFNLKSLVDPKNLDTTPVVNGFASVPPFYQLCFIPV
Method in brief: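 P450-Glo CYP2C9 system: proluciferin substrate with enzyme in mix containing 0.4% BSA, 10 min at room temperature, then NADPH regeneration solution added and incubated 1 h at 37C. Detection reagent stopped reaction; luminescence read after 20 min as RLU.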

[13] = tested on: Zika virus NS2B-NS3 protease (unlinked complex); assay: Primary screen GU Rhodamine qHTS for Zika virus inhibitors: Unlinked NS2B-NS3 protease assay (AID 1347159); conditions: Recombinant ZIKV NS2B-NS3 protease, Rhodamine110 substrate fluorescence; activity change, negative = inhibition: at 107 µM (top of the series); also: potency is read from the fitted curve at half-maximal effect; nearly all actives have a fitted effect of over 60% in size
Method in brief: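 Enzyme 25 nM in Tris-HCl pH 8.0 + 0.01% Tween 20; compounds up to 114 microM, 15 min RT dark; + Rhod110 substrate 1.5 microM; read t0 and 15 min; delta fluorescence → % inhibition → 4-parameter Hill fit.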

[14] = qHTS of pediatric cancer cell lines to identify multiple opportunities for drug repurposing: Primary screen for A673 cells (AID 1347092); conditions: A673 Ewing sarcoma viability, CellTiter-Glo ATP luminescence, 48 h; activity change, negative = cytotoxic: at 46 µM (top of the series); also: % is scaled to controls: 0 for no effect and ±100 for the full control effect; nearly all actives have a fitted effect of over 45% in size
Method in brief: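 A673 cells (500-1,000 cells/well in growth media) were pre-incubated 5 h at 37 degrees C, then exposed to compounds for 48 h. Viability was read as CellTiter-Glo luminescence; concentration-response curves came directly from the primary screen.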

[15] = qHTS of pediatric cancer cell lines to identify multiple opportunities for drug repurposing: Primary screen for Saos-2 cells (AID 1347097); conditions: Saos-2 viability, CellTiter-Glo ATP luminescence, 48 h; activity change, negative = cytotoxic: at 46 µM (top of the series); also: % is scaled to controls: 0 for no effect and ±100 for the full control effect; nearly all actives have a fitted effect of over 40% in size
Method in brief: as §1

[16] = molecular target: Protein phosphatase 1D (Homo sapiens) (UniProt O15297); assay: RapidFire Mass Spectrometry qHTS Assay for Modulators of WT P53-Induced Phosphatase 1 (WIP1) (AID 1347424);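 also: plate controls were DMSO wells for no effect and GSK830371 inhibitor control at 10 µM for full effect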
Chain of UniProt O15297 (O15297 whole entry, looked up): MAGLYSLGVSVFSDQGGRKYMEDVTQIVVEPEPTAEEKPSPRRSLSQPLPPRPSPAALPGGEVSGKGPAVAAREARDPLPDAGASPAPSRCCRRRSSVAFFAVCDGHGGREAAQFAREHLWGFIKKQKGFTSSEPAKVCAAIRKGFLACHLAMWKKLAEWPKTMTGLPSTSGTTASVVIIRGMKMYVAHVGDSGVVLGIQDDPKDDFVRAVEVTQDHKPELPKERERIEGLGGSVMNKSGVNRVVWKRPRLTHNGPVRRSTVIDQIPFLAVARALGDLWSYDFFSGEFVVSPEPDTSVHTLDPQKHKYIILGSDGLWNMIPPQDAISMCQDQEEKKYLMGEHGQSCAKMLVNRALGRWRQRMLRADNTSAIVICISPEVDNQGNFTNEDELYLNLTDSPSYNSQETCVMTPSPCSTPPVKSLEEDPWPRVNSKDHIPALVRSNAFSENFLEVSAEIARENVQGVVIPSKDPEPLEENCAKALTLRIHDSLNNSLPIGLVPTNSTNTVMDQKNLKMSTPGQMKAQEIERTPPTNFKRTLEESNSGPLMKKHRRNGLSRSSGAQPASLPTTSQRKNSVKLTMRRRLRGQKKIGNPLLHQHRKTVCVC
Method in brief: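 RapidFire MS readout of dephosphorylated VEPPL-S-QETFS product, with 1 uM isotope-labelled peptide standard. Reaction: 10 nM WIP1, 2 uM phosphopeptide substrate, 5 min, room temperature, after 1 h compound preincubation; stopped with 0.5% formic acid.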

[17] = A High-Content qHTS Against Drug Library for the Identification of Small Molecules that Inhibit DYT1 Early Onset Primary Dystonia-Associated Cell Pathology (AID 1645839; calls by dose curve; also: potency is read from the fitted curve at half-maximal effect)
Method in brief: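 Cells were seeded and left for 24 h, then dosed with compound alongside tetracycline induction of mutant EGFP-TorsinA. They were incubated for 48 h, fixed in 4% paraformaldehyde, permeabilized and imaged for mislocalization (%pathology) and cell count.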
Tags tell the direction and shape of the fitted curve.

Question: For `OC1CCC(Nc2ncc3nc(Nc4c(F)cc(F)cc4F)n([C@H]4CCOC4)c3n2)CC1` (some centres undefined), which Potency [1] is on record?
Answer: inactive

Question: And the Potency [2]?
Answer: inconclusive [inhibitor, single point]

Question: And the Potency [3]?
Answer: inconclusive [inhibitor, partial curve]

Question: And the Potency [4]?
Answer: inconclusive [inhibitor, single point]

Question: And the Potency [5]?
Answer: active: 20.2 µM

Question: What about the Potency [6] of the same compound?
Answer: inconclusive [inhibitor, partial curve]

Question: What about the Potency (HaCat) of the same compound?
Answer: inconclusive [inhibitor, single point]

Question: And the Potency (Tov-21-G)?
Answer: inactive

Question: With `Cc1ccc(C(=O)C(=O)O)cc1C` as the compound, how does the Potency [7] read?
Answer: inactive

Question: What about the Potency [8] of the same compound?
Answer: inactive

Question: What about the Potency [9] of the same compound?
Answer: inactive

Question: And the Potency [10]?
Answer: inconclusive [inhibitor, full curve]

Question: What about the Potency [1] of the same compound?
Answer: inconclusive [inhibitor, partial curve]

Question: And the Potency [2]?
Answer: inactive

Question: And the Potency (HaCat)?
Answer: inconclusive [inhibitor, single point]

Question: With `Cc1[nH]cnc1-c1ccc(Cl)cc1` as the compound, how does the activity change, negative = cytotoxic [11] read?
Answer: inconclusive: -32.9% [cytotoxic]

Question: What about the Potency [10] of the same compound?
Answer: inconclusive [inhibitor, partial curve, poor fit]

Question: What about the Potency [12] of the same compound?
Answer: inconclusive [inhibitor, single point]

Question: And the max response (HaCat)?
Answer: inactive: -6.75%

Question: With `C=C(C(=O)O)[C@@H]1CC[C@H](C)[C@@H]2CC(=O)C(C)=C2C1` as the compound, how does the Potency [13] read?
Answer: inconclusive [inhibitor, full curve, poor fit]

Question: What about the Potency [2] of the same compound?
Answer: inactive

Question: And the max response (HaCat)?
Answer: inactive: -2.91%

Question: With `CCOC(=O)C(=O)CCCCCCl` as the compound, how does the Potency [14] read?
Answer: inactive

Question: And the Potency [15]?
Answer: inactive

Question: What about the Potency [8] of the same compound?
Answer: inactive

Question: And the Potency [16]?
Answer: inactive

Question: And the Potency [17]?
Answer: inconclusive [inhibitor, partial curve, poor fit]

Question: What about the Potency [1] of the same compound?
Answer: inconclusive [inhibitor]

Question: What about the max response (HaCat) of the same compound?
Answer: inactive: -12.5%
